# Results published in the supplement of paper PMC3334620.
# The full ranking holds about 33,000 sequences; the median of “E-score (-0.5 to 0.5)” is about -0.011, and the highest 2% start at about 0.28. The list shows a part of the results.
# Molecular target: T1, Gcr1 (UniProt P07261)
# T1 sequence: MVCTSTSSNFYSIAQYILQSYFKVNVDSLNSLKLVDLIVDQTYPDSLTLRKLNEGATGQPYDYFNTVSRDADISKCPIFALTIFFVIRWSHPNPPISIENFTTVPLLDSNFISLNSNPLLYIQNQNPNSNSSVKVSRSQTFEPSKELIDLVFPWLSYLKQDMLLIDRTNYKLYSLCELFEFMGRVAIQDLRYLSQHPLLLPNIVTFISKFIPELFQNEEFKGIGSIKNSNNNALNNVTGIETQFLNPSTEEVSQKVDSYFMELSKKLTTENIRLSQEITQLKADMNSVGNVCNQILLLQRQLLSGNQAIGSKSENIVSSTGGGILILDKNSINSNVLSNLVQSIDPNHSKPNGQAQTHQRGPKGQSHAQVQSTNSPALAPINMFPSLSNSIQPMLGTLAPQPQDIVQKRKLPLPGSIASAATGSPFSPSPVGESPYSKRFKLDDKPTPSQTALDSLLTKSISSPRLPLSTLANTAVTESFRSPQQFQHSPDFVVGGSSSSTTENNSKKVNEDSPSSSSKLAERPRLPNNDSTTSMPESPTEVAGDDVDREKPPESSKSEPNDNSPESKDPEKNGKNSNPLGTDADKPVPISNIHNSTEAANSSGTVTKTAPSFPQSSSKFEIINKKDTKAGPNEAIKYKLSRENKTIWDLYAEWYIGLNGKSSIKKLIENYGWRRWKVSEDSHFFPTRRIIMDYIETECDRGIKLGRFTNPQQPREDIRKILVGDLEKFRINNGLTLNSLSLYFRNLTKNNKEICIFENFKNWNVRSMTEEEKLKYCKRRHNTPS
# Test: PBM E-score (8-mer binding enrichment) (E-score (-0.5 to 0.5)); higher = stronger / more preferred TF binding; most listed sequences are background and not binding sites
# Settings: protein concentration: 100 nM; construct: GST-full length
# Method in brief: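 Yeast transcription factors carrying a GST tag, as full-length proteins or DNA-binding domains, were produced by PURExpress in vitro transcription/translation. About 100-200 nM protein was applied to universal all-10-mer Agilent arrays, double-stranded by primer extension on fresh or once-stripped slides. Bound protein was detected with fluorescent anti-GST, and scans were normalised with masliner. The Universal PBM Analysis Suite gave each ungapped eight-base word, pooled with its reverse complement, an E-score, a modified Wilcoxon-Mann-Whitney statistic.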
row,Sequence,PBM E-score
1,ACGCCGTC,0.105
2,CTCAGACA,0.0236
3,AATCATTG,-0.182
4,CCGACCTC,-0.235
5,TGTGGGAA,0.093
6,ATACGCAC,0.163
7,ATCGTCCA,0.0357
8,GGCGTCGA,0.0576
9,AGCCTGAT,0.0314
10,GCCCCGAC,-0.105
11,CGTACACC,-0.0647
12,GGCTAAGA,-0.11
13,AACCAGTT,0.176
14,AGCGCCGG,-0.00207
15,AGACATTG,-0.0678
16,ACGGAGTA,-0.103
17,TACTGAAA,0.0192
18,CAGGCTCA,0.0633
19,GGTGATCA,0.0761
20,AAGCTCCC,0.195
21,GGTTATGA,0.0116
22,AGATGTCA,-0.00318
23,ACGTACAC,-0.0123
24,TATTATAA,0.174
25,AGCCTCGG,-0.275

row,Sequence,PBM E-score
1,ACGCGCGT,0.123
2,AAAGGGCT,0.0327
3,ACAGTTTC,0.127
4,ATGTCGGC,0.0418
5,TACCAAGA,-0.00516
6,AACTGCCC,-0.0122
7,CCCCAGCA,-0.0483
8,GCAGTTGA,0.0814
9,AATAGTCT,-0.146
10,AGGCCACT,0.0765
11,TCGCAGAA,-0.179
12,CCACAGGA,0.171
13,AAGAGCCC,0.0779
14,TACACCAA,0.00272
15,CCAAAACG,0.115
16,ATTGTTGC,-0.0835
17,ACTTCAAT,0.19
18,AGTCCAAA,-0.0142
19,AAGCGCCA,0.276
20,CCTTTTCA,-0.164
21,ATTCCCTA,0.11
22,CACCCGAC,-0.097
23,CTGGCGTC,0.279
24,CCACGAAA,0.0563
25,CCCTCCCG,-0.181

row,Sequence,PBM E-score
1,GAGCCATC,0.0178
2,AAAGCGCA,-0.207
3,CTAAAATA,0.074
4,AAATAATC,0.0178
5,ACGCGTTC,0.0993
6,CGACTCCG,-0.191
7,TGGGCAAA,-0.213
8,ATGCATAC,-0.0539
9,CTTCCCCC,-0.138
10,ACTCGGCC,-0.121
11,AACTCCCG,0.0309
12,TTACTCAA,-0.23
13,CATGCCAA,-0.0505
14,ATGAAAGA,0.0426
15,GTTAGTAA,0.00996
16,AAGACTTG,-0.187
17,AGTTGCAG,0.0476
18,ATGTAGTG,0.119
19,GTTATAAA,0.0309
20,CTCACAGA,-0.162
21,CCGGACGC,0.31
22,ACAAAACA,-0.00423
23,AGCCATAG,-0.192
24,AGTGGTGA,0.0333
25,CGATTGCG,-0.0492

row,Sequence,PBM E-score
1,CCTTTACC,-0.0637
2,ACTTGATA,-0.0538
3,CTGCGCCC,-0.116
4,AAGCGATA,-0.0205
5,CGGACGGC,-0.0351
6,AATGCTAG,0.0693
7,ATGTGGCA,0.104
8,AGTTCGCC,-0.0721
9,AAGTAATG,0.105
10,CGCTACAA,0.0428
11,ACCTTATG,0.0442
12,GTCAATAA,-0.1
13,TATGATGA,-0.126
14,CAACTCTA,0.0646
15,CGGAGATC,-0.0467
16,CTGAGTGC,-0.217
17,CTACTAAA,0.239
18,CTTGGTTA,-0.0469
19,GACCCGTA,0.00607
20,AGATCTAC,0.0499
21,ATAGATGC,0.0983
22,CAGTCGGA,-0.199
23,CGAAACGA,-0.0501
24,AAGTTTTG,0.127
25,GCGGGCGA,-0.115

row,Sequence,PBM E-score
1,ATAAATAC,0.134
2,GTAAAGCA,-0.0825
3,CCGGGCCA,-0.0723
4,ACAGGGAC,0.107
5,CTCCGTGC,-0.158
6,AGCTCCAT,0.0236
7,GGTATATA,-0.00971
8,CATGAGGC,-0.0677
9,GTCTATAA,0.0305
10,ACACTATA,0.0415
11,TAAACCCA,-0.0798
12,CTTATCGA,-0.16
13,AGATAGAA,-0.101
14,ATCAACAG,0.104
15,ACAAATCG,0.0554
16,AAGGCCCG,-0.134
17,ATTGGGGC,0.124
18,AGCATATG,0.1
19,AAGATAGG,-0.0321
20,ATTCACAC,0.0867
21,GCTACGCA,0.117
22,AAGAGCGT,0.00774
23,AGACATGA,-0.067
24,GGAACTTA,0.113
25,GCTTCTGA,0.0646

row,Sequence,PBM E-score
1,CCCCTCAC,-0.0282
2,CCTAGGAC,-0.112
3,GAGTCAGC,-0.0621
4,GTGAGCAA,0.0496
5,GCGATGCC,0.0708
6,ACTGCAGT,-0.121
7,AGGGCCAG,-0.166
8,TGCTTCCA,0.146
9,CTTCTGGA,0.225
10,AGAATTCA,0.139
11,ACTCCCAT,0.169
12,GGCCTCCC,0.0992
13,CATCTCCA,-0.0432
14,CCGGGACG,-0.118
15,ATTTTCGG,0.0984
16,ATTGACTG,-0.078
17,TTATACAA,-0.00177
18,ACACATTG,0.0249
19,ACGAACAT,-0.0127
20,CGCTGTAA,-0.042
21,CTATTAAC,0.165
22,CAATAGCG,0.025
23,GTGTTGCA,0.0192
24,AGCCCTAC,0.0978
25,GTCATCTA,0.107

row,Sequence,PBM E-score
1,AGAAATCT,0.0341
2,GACATGCC,-0.335
3,GGGATTAA,-0.101
4,ATAAGGAA,-0.101
5,ACTCCCAG,-0.0477
6,CATCCGAC,-0.00825
7,ACAGGATG,0.372
8,ACAGGAGA,0.0441
9,ACATCCGC,0.0717
10,ATCAGCCG,-0.264
11,TGGGAGAA,-0.095
12,CTTTGGAA,0.282
13,CGGATATA,0.134
14,CCGACAGG,-0.0659
15,CAATACAG,-0.0441
16,ATCGCGTG,0.0392
17,CTACAATC,0.0998
18,AAATTCGC,-0.00863
19,CCTTAATC,0.00958
20,CGCTGCTC,0.0496
21,CGGCTTGA,-0.105
22,TAAACAAA,0.0404
